# From PubChem BioAssay AID485344 (National Center for Advancing Translational Sciences (NCATS), 2010)
# Hit rate of the full screen: of about 340,000 compounds, about 6,900 (2%) were called active. Cut-off read from the data, not from the text of the source: active = inhibition above about 30%; inactive = below that, where a call was filed. The list shows a part of the results, in another mix than the full data. Where no call is shown, the source filed none.
# Target: D(2) dopamine receptor (Homo sapiens) (UniProt P14416)
# Experiment: HTS Assay for Allosteric Antagonists of the Human D2 Dopamine Receptor: Primary Screen for Antagonists; note: 0% is about no effect
# Conditions: HEK293 TREx D2 cells, calcium flux, dopamine EC80; at 10 µM; stronger effect = higher value
# Summary of the method: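 Overnight-induced (tetracycline, 30 C) HEK293 T-REx cells carrying force-coupled D2 receive a no-wash calcium dye, then compound, then EC80 dopamine at 180 s; signals are read kinetically throughout.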
# UniProt P14416, sequence (P14416 whole entry, looked up): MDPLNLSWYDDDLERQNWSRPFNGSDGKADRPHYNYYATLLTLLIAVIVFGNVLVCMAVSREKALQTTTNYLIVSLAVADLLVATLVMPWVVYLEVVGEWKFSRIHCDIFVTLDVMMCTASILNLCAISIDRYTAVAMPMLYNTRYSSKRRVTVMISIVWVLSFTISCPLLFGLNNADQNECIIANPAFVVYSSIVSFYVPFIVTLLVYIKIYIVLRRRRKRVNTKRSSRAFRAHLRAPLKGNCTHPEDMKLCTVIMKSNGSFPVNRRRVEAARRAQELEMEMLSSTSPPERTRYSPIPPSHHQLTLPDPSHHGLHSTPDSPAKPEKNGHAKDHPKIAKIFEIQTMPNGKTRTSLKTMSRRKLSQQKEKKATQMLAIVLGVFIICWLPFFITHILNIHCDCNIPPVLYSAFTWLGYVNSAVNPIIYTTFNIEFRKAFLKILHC
row,SMILES,inhibition
1,CC(C)CC(C(=O)NCc1ccc(F)cc1)N1Cc2ccccc2C1=O (configuration not stated),1.59%
2,COc1ccc(OCCCCn2c(-c3ccc(Cl)cc3)nc3ccccc3c2=O)cc1,2.78%
3,CCCCCOC(=O)CSc1ncnc2c1sc1nc(N3CCOCC3)c3c(c12)CCCC3,6.76%
4,Cc1cc(Nc2cccc(C)c2C)n2cnnc2n1,-14.9%
5,Cc1ccc(C(=O)CC2(O)C(=O)N(CCc3ccccc3)c3ccc(Cl)cc32)cc1 (configuration not stated),-14.3%
6,Cn1c(=O)c2c(-c3ccccc3Cl)n(-c3cc(Cl)ccc3O)cc2n(C)c1=O,-0.64%
7,COc1cc(NC(=O)CCc2nc(-c3cccs3)no2)cc(OC)c1OC,-8.78%
8,Cc1ccc2c(=O)cc(C(=O)Nc3cccc(Cl)c3C)oc2c1C,-0.207%
9,COc1ccc(C2C(O)C(c3c[nH]c4ccccc34)=NN2C(=O)CCl)cc1 (configuration not stated),active: 31.6%
10,COc1ccc(NC(=S)Nc2ccccc2Cl)cn1,active: 40.5%
11,CC(=O)c1ccc(N2CCN(S(=O)(=O)c3ccc(-c4cc(C(F)(F)F)on4)s3)CC2)cc1,6.41%
12,O=C(NCc1cccnc1)c1cn(-c2ccccc2)nc1-c1ccccc1,active: 43.9%
13,Cc1ccccc1OCC(=O)OCc1cc(=O)n2nc(C3CCCCC3)sc2n1,-1.13%
14,CCc1c(-c2ccccc2)nc2ccccc2c1C(=O)NCCc1ccccc1,1.01%
15,CCC(C)(C)C(=O)Nc1nnc(CCc2ccccc2)s1,active: 43.8%
16,Cc1csc2nc(COc3ccccc3NC(=O)c3ccco3)cc(=O)n12,-11.7%
17,CSc1cccc(NC(=O)Cn2c3ncccc3c(=O)n2-c2ccc(C)cc2)c1,-0.196%
18,Cc1ccc(C)c(CN2C(=O)c3ccccc3S(=O)(=O)c3ccc(C(=O)N4CCCCCC4)cc32)c1,9.12%
19,O=C(NCC(c1ccco1)S(=O)(=O)c1cccs1)c1ccc(F)cc1 (configuration not stated),8.37%
20,CC(=O)Nc1ccc(C2Sc3ccccc3NC3=C2C(=O)c2ccccc23)cc1 (configuration not stated),-7.27%
21,CCOC(=O)c1ccc2oc(=O)n(Cc3ccccc3)c2c1,10.8%

row,SMILES,inhibition
1,Cc1oc2ncn(CC(C)C)c(=O)c2c1C(=O)NCCCN1CCCCC1,-2.21%
2,O=C(COc1ccc(F)cc1)Nc1ccc2nc(SCC(=O)N3CCc4ccccc43)sc2c1,10.6%
3,COc1ccccc1CNC(=O)c1ccc(N2CCCC2)c(NC(=O)NCCC(C)C)c1,18.5%
4,Cc1cc(C)c(NC(=O)c2cc3sc(Cl)cc3n2C)c(C)c1,18.6%
5,CS(=O)(=O)NCCNC(=O)c1cc(OCC(F)(F)F)ccc1OCC(F)(F)F,active: 30.8%
6,CCOc1cccc2cc(-c3nc4ccc(C(=O)O)cc4[nH]3)c(=O)oc12,22.9%
7,CCOc1ccc(NC(=O)CSc2nnc3scc(-c4ccc(Cl)cc4)n23)cc1,-14.3%
8,COc1ccc(C)cc1S(=O)(=O)N1CCN(c2cccc(Cl)c2)CC1,2.32%
9,COc1cc2oc(=O)c(CC(=O)N3CCCCC3)c(C)c2cc1Cl,13%
10,Cc1cccc(-n2c3nc(=O)[nH]c(=O)c-3cc3c(Cl)cccc32)c1C,5.85%
11,Cc1cccc(NC(=O)CN(C)C(=O)c2ccc3ccccc3n2)c1C,active: 30.1%
12,CC(=O)N1CCc2c(sc3c2c(=O)n(-c2ccccc2)c(=O)n3CC(=O)Nc2ccccc2C)C1,-11.3%
13,COc1ccc(NC(=O)c2oc3ccccc3c2NC(=O)c2cc3ccccc3o2)cc1,11%
14,COc1ccc2c(c1)CC(NC(=O)Nc1c(C)cc(C)cc1C)CO2 (configuration not stated),11.1%
15,Cc1ccc(OC(=O)c2cc(-c3ccc4c(c3)OCCO4)on2)cc1C,-19.1%
16,CCOc1ccc(NS(=O)(=O)c2ccc3[nH]cc(C(=O)N(C)Cc4ccccc4)c(=O)c3c2)cc1,-0.918%
17,CCOC(=O)c1cccc(NC(=O)c2cc(CN3CCOCC3)on2)c1,-3.38%
18,CCN(CC)S(=O)(=O)c1ccc(C(=O)Nc2nc3c(Cl)cc(Cl)cc3s2)cc1,1.55%
19,CCOC(=O)c1ccc(NC(=O)COCc2cc(-c3ccc4c(c3)OCO4)on2)cc1,-4.94%
20,N#CCC1c2ccccc2CCN1C(=O)Nc1ccc(C(F)(F)F)cc1 (configuration not stated),active: 64.6%
21,CCOC(=O)CNC(=O)N1CCc2cc(S(=O)(=O)N3CCC(C)CC3)ccc21,-5.82%

row,SMILES,inhibition
1,CNC(=O)N(O)C1N(/N=C/c2cc(Br)ccc2O)C(=S)SC1(C)C (configuration not stated),active: 49.5%
2,CNC(=O)C1CCC(Cn2c(=O)[nH]c3ccsc3c2=O)CC1 (configuration not stated),-17.7%
3,CCOC(=O)c1ccc(N2C(=O)c3n[nH]c(C)c3C2c2ccc(C(C)(C)C)cc2)cc1 (configuration not stated),10.6%
4,Cc1cccc(OC(=O)c2cc(-c3ccc4c(c3)OCCO4)on2)c1,7.46%
5,Cc1ccc(NS(=O)(=O)c2ccc3c(c2)NC(=O)CCS3)cc1C,14.6%
6,Cc1ccccc1-n1c(/C=C/c2c(C)n(C)c3ccccc23)nc2ccccc2c1=O,-4.26%
7,CC(C)(C)OC(=O)N1CCC(c2c(C(=O)N3CCN(c4ncccn4)CC3)cnn2-c2ccccc2)CC1,-2.52%
8,CC(C)C12CN3CC(C(C)C)(CN(C1)C3c1ccc(Cl)cc1)C2=O (configuration not stated),2.21%
9,COc1ccc(-c2nc3ccccc3o2)cc1NC(=O)C(C)Oc1ccc(Cl)cc1Cl (configuration not stated),-25.6%
10,Cc1nc2ccccc2n1CCc1nc2c3ccccc3nc(SCC(=O)Nc3ccc(Br)cc3F)n2n1,3.12%
11,CN1CCN(c2oc(-c3ccc(COc4ccc(Cl)cc4)o3)nc2C#N)CC1,-0.477%
12,N#Cc1nc(-c2ccc(COc3ccccc3)o2)oc1NCc1ccccc1,9.75%
13,O=C(CN1C(=O)CCc2cc(S(=O)(=O)N3CCOCC3)ccc21)Nc1cccc(Cl)c1,7.51%
14,Cc1ccc(CNC(=O)CSc2nc(=O)[nH]c3c2CCCC3)cc1,22.6%
15,CCCSc1ncc(Cl)c(C(=O)N(Cc2ccc(N(C)C)cc2)C2CCS(=O)(=O)C2)n1 (configuration not stated),0.95%
16,COc1ccc(NC(=O)Cn2cnc3sc(C)c(S(=O)(=O)N4CCN(C)CC4)c3c2=O)cc1Cl,0.528%
17,CCC(O)c1cc2c(cc1NC(=O)c1cccc(Br)c1)OCCO2 (configuration not stated),8.2%
18,COc1ccc(-c2cn3c(n2)sc2cc(C(=O)NCCCN4CCCCCC4)ccc23)cc1,-2.28%
19,CC[C@@]12C(=O)N(c3cccc(Br)c3)C(=O)N1[C@H](c1ccc(Br)cc1)[C@@H]1C(=O)N(C(C)(C)C)C(=O)[C@@H]12,active: 32.3%
20,CCCOC(=O)c1c(NC(=O)C2c3ccccc3Oc3ccccc32)sc2c1CCC(C)C2 (configuration not stated),-5.27%
